{"source": "PubChem BioAssay AID485344", "about": "(National Center for Advancing Translational Sciences (NCATS), 2010)", "note": "The whole screen tested about 340,000 compounds, of which about 6,900 (2%) were called active. Rule as the data show it: active = inhibition above about 30%; inactive = below that, where a call was filed. The list shows a part of the results, in another mix than the full data. Where no call is shown, the source filed none."}
{"target": "D(2) dopamine receptor (Homo sapiens) (UniProt P14416)", "sequence (P14416 whole entry, looked up)": "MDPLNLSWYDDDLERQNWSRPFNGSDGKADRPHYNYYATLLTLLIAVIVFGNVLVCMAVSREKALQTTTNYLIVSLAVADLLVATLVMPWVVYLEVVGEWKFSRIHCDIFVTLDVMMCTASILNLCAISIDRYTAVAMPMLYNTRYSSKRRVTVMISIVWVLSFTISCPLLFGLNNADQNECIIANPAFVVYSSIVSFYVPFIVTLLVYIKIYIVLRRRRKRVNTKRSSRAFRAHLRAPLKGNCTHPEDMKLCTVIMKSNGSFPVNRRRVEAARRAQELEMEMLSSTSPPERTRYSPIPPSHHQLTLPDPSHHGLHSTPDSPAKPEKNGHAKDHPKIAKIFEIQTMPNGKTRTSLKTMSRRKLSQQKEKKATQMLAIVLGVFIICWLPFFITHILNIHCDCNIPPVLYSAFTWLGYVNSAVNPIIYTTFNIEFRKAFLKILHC", "assay": "HTS Assay for Allosteric Antagonists of the Human D2 Dopamine Receptor: Primary Screen for Antagonists; also: 0% is about no effect", "settings": "HEK293 TREx D2 cells, calcium flux, dopamine EC80; at 10 µM; stronger effect = higher value", "procedure,_shortened": "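HEK293 T-REx D2 cells, tet-induced, calcium dye no-wash. Cpd pintool add, 180 s kinetic, then EC80 DA, 180 s kinetic. Ca flux read.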"}
{"smiles": "COc1ccc(N2C(=O)CSC2c2cccc(OC)c2OC)cc1", "note": "(stereo unspecified)", "inhibition": "active: 50.7%"}
{"smiles": "CC(=O)c1cccc(NC(=O)Cn2c(=O)c(CNc3ccc(C)cc3)cc3cc4c(cc32)OCCO4)c1", "inhibition": "10.8%"}
{"smiles": "COc1ccccc1C(=O)Nc1ccc2nc(N3CCC(C)CC3)cc(C)c2c1", "inhibition": "22.7%"}
{"smiles": "CCOc1ccccc1NS(=O)(=O)c1c(C)nc2sccn2c1=O", "inhibition": "13.7%"}
{"smiles": "Cc1c(C(=O)N2CCC(C)CC2)c(S(=O)(=O)NCc2ccccc2)c(C)n1C", "inhibition": "-13.8%"}
{"smiles": "COc1ccc(Nc2ncnc3c2cnn3-c2ccc(C)cc2C)cc1", "inhibition": "-5.36%"}
{"smiles": "Cc1nn(C(=O)c2ccccc2F)c(C)c1S(=O)(=O)N1CCOCC1", "inhibition": "-1.84%"}
{"smiles": "COc1cccc(CC(=O)Nc2ccc3nc(N4CCC(C)CC4)cc(C)c3c2)c1", "inhibition": "-1.96%"}
{"smiles": "COc1ccc(NC(=O)CSc2nc3c([nH]c4ccccc43)c(=O)n2C)cc1", "inhibition": "4.15%"}
{"smiles": "Nc1c(C(=O)Nc2ccccc2Cl)c2ccccn2c1C(=O)c1ccc(Cl)cc1", "inhibition": "-1.29%"}
{"smiles": "Cc1ccc(CNC(=O)CSc2ncc(S(=O)(=O)c3ccc(Br)cc3)c(=O)[nH]2)cc1", "inhibition": "-6.08%"}
{"smiles": "COc1ccc(NS(=O)(=O)c2ccc3c(c2)C(C(C)C)C(=O)N3)cc1", "note": "(stereo unspecified)", "inhibition": "2.73%"}
{"smiles": "CCn1c(C)c(C2N3CC4(C)CN2CC(CC)(C3)C4=O)c2ccccc21", "note": "(stereo unspecified)", "inhibition": "-9.39%"}
{"smiles": "CCc1nn(CC(=O)NCCC(C)C)c(=O)c2cc3occc3n12", "inhibition": "9.69%"}
{"smiles": "Cc1ccc(CNC(=O)C(=O)NCC(c2cccs2)S(=O)(=O)c2ccc(C)cc2)cc1", "note": "(stereo unspecified)", "inhibition": "-2.19%"}
{"smiles": "COC(=O)c1sccc1S(=O)(=O)N(CC(=O)NCc1ccccc1)c1ccccc1", "inhibition": "4.61%"}
{"smiles": "Cc1ccc2c(CNCC(C)c3ccccc3)c(C(=O)O)n(Cc3ccccc3C)c2c1", "note": "(stereo unspecified)", "inhibition": "8.95%"}
{"smiles": "Cc1ccccc1Cn1c(CN2CCC(C(=O)NCc3cccnc3)CC2)cc2ccccc21", "inhibition": "6.27%"}
{"smiles": "CCOC(=O)C1CCN(C(=O)Cn2nc(C)n3c(cc4sccc43)c2=O)CC1", "inhibition": "-4.62%"}
{"smiles": "COc1ccc(C(=O)Nc2cccc(-c3cn4ccsc4n3)c2)cc1OC", "inhibition": "7.18%"}
{"smiles": "C=Cc1ccc(N=Cc2c(O)ccc3ccccc23)cc1", "inhibition": "active: 43.5%"}
{"smiles": "COc1cccc(NC(=O)C2CCCN2C(=O)Nc2ccccc2)c1", "note": "(stereo unspecified)", "inhibition": "active: 33.5%"}
{"smiles": "CCCN1CCN(CCCNC(=O)c2ccc3c(c2)sc2nc(-c4ccc(OC)cc4)cn23)CC1", "inhibition": "25.9%"}
{"smiles": "Cc1c(C)n(Cc2ccccc2)c2ccc(C(=O)NCc3ccccc3F)cc12", "inhibition": "-6.11%"}
{"smiles": "Cc1ccc(-c2nc3ccccc3[nH]2)cc1NC(=O)COc1ccccc1[N+](=O)[O-]", "inhibition": "20.5%"}
{"smiles": "O=C(c1cnn(-c2cccc(F)c2)c1-n1cccc1)N1CCN(c2ccccc2F)CC1", "inhibition": "-5.2%"}
{"smiles": "CC(=O)c1cccc(NC(=O)CN2C(=O)c3ccccc3Sc3ncccc32)c1", "inhibition": "24.3%"}
{"smiles": "COc1ccc(-n2nc3c(N4CCC(C(=O)NCc5cccc(F)c5)CC4)nnc(C)c3c2C)cc1", "inhibition": "4.29%"}
{"smiles": "CCc1ccc(NC(=O)CCn2c(-c3ccc(OC)cc3)cc(C(C)=O)c2C)cc1", "inhibition": "-24.4%"}
{"smiles": "COc1ccc(NC(=O)c2ccc3c(c2)N(Cc2cccc(Cl)c2)C(=O)c2ccccc2S3=O)cc1Cl", "note": "(stereo unspecified)", "inhibition": "14.8%"}
{"smiles": "CC1CCN(c2nc3c(S(=O)(=O)c4ccccc4)nnn3c3ccc(Cl)cc23)CC1", "inhibition": "-7.64%"}
{"smiles": "COc1cccc(Cc2nc3ccccc3nc2SCC(=O)NCCc2ccccc2)c1", "inhibition": "-1.4%"}
{"smiles": "COc1ccc(C2C=C(c3ccc(F)cc3)Nc3nc(-c4ccc(Cl)cc4)nn32)cc1", "note": "(stereo unspecified)", "inhibition": "22.5%"}
{"smiles": "O=C(Nc1cccc(C(F)(F)F)c1)c1cc2c(s1)-c1ccccc1OC2", "inhibition": "active: 40.3%"}
{"smiles": "Cc1cccc(S(=O)(=O)Nc2cccc(-c3ccc(N4CCCCC4)nn3)c2)c1", "inhibition": "23.9%"}
{"smiles": "CCN(CC)C(=O)Cn1c(=O)n(-c2ccc(Cl)c(Cl)c2)c(=O)c2c(C)c(C(=O)N(CC)CC)sc21", "inhibition": "-20.6%"}
{"smiles": "CCc1nnc2c(N3CCN(c4cccc(C)c4)C(C)C3)nc3ccccc3n12", "note": "(stereo unspecified)", "inhibition": "-8.62%"}
{"smiles": "COc1cc(OC)cc(C(=O)Nc2cc3c(cc2N2CCCCC2)n(C)c(=O)n3C)c1", "inhibition": "-7.11%"}
{"smiles": "CCc1ccccc1NC(=O)Cn1c(=O)n(Cc2ccco2)c(=O)c2ccccc21", "inhibition": "-14.5%"}
{"smiles": "COc1ccc(-c2c(C#N)c(SCC(=O)Nc3cccc(Cl)c3)nc(C)c2C(=O)Nc2ccccc2)cc1OC", "inhibition": "17.1%"}
{"smiles": "CCc1ccc(NC(=O)C2CCN(c3nn4cc(-c5ccc(OC)cc5)nc4s3)CC2)cc1", "inhibition": "23.8%"}
{"smiles": "Cc1ccc(N2C(=O)CC(c3ccccc3F)C3=C2COC3=O)cc1Cl", "note": "(stereo unspecified)", "inhibition": "0.767%"}
{"smiles": "COc1ccc(CNC(=O)c2cnc3sc(N4CCC(C)CC4)nn3c2=O)c(OC)c1", "inhibition": "5.69%"}
{"smiles": "O=C(Nc1cc(Cl)ccc1Cl)c1cc(S(=O)(=O)NCCc2ccccc2)ccc1F", "inhibition": "-23.7%"}
{"smiles": "Cc1nc(N2CCOCC2)c2c(C(=O)N3CCN(c4ccccc4F)CC3)c(C)oc2n1", "inhibition": "-5.34%"}
{"smiles": "Cc1ccc(CN2COc3ccc4c(C)cc(=O)oc4c3C2)cc1", "inhibition": "3.34%"}
{"smiles": "COc1ccc(-c2nc3c(c(SCC(=O)Nc4cccc(O)c4)n2)Cc2c(CO)cnc(C)c2O3)cc1", "inhibition": "8.72%"}
{"smiles": "O=C(NCc1ccc(Cl)cc1)c1cc2c(s1)-c1ccccc1SC2", "inhibition": "-1.93%"}
{"smiles": "CC(C)c1ccc(C2Sc3ccccc3NC3=C2C(=O)c2ccccc23)cc1", "note": "(stereo unspecified)", "inhibition": "-0.881%"}
{"smiles": "COC(=O)c1cc(NC(=O)CCc2c(C)nc3c(c(C)nn3C(C)(C)C)c2C)cc(C(=O)OC)c1", "inhibition": "-7.86%"}
{"smiles": "Cn1nnnc1SCCCNCc1ccc(Cl)cc1", "inhibition": "-6.71%"}
{"smiles": "COC(=O)COc1ccc(C2C(C(=O)OC)=C(C)NC3=C2C(=O)c2ccccc23)cc1OC", "note": "(stereo unspecified)", "inhibition": "-5.4%"}
{"smiles": "COc1ccc(CCNC(=O)Cc2c(C)c3cc4c(C(C)(C)C)coc4c(C)c3oc2=O)cc1OC", "inhibition": "-6.55%"}
{"smiles": "Cc1cc(C)c2c(c1)NC(=O)C2(O)c1c[nH]c2ccccc12", "note": "(stereo unspecified)", "inhibition": "16.4%"}
{"smiles": "Cc1ccc2c(c1)cc1c(=O)n(Cc3cccc(Cl)c3)nc(C)n12", "inhibition": "-1.28%"}
{"smiles": "Cc1cn(C)c(CC(=O)NCc2cccc(Cl)c2)c1C(=O)O", "inhibition": "3.23%"}
{"smiles": "CC(C)(C)c1ccc(S(=O)(=O)N2CCC(Oc3ccc(-n4cnnn4)cc3)CC2)cc1", "inhibition": "2.34%"}
{"smiles": "CC(C)(C)c1ccc(CSC2=Nc3ccccc3C3=NC(CC(=O)NCc4cccs4)C(=O)N23)cc1", "note": "(stereo unspecified)", "inhibition": "15.5%"}
{"smiles": "Cc1ccc(CNS(=O)(=O)c2ccc(N3CCCCS3(=O)=O)cc2)cc1", "inhibition": "10.4%"}
{"smiles": "O=C(CNC(=O)c1ccc(Cl)cc1)OCc1cc(=O)n2nc(C3CC3)sc2n1", "inhibition": "8.13%"}
{"smiles": "CCC(C)NC(=O)c1cc2cc(S(=O)(=O)N3CCCCC3)ccc2n1C", "note": "(stereo unspecified)", "inhibition": "18.4%"}
{"smiles": "CCN1CCN(c2ncc3c(n2)CCN(Cc2cc(Br)cs2)C3)CC1", "inhibition": "-26.5%"}
{"smiles": "Cc1c(O)nc(SCC(=O)Nc2ccc(Cl)cc2Cl)n(-c2ccc(F)cc2)c1=O", "inhibition": "-1.91%"}
{"smiles": "O=C(NCC(c1ccc2c(c1)OCO2)N1CCOCC1)c1ccccc1", "note": "(stereo unspecified)", "inhibition": "-2.9%"}
{"smiles": "Cc1nn(C)c2c1c(C(F)(F)F)cc(=O)n2CC(=O)NCc1ccc(OC(C)C)cc1", "inhibition": "-6.04%"}
{"smiles": "CCC(C)c1ccc(OCC(=O)Nc2cccc3ccc(C)nc23)cc1", "note": "(stereo unspecified)", "inhibition": "7.16%"}
{"smiles": "CCc1ccccc1NC(=O)CCNS(=O)(=O)c1ccc2c(c1)CCCC(=O)N2", "inhibition": "-12.8%"}
{"smiles": "CCCCCCOc1ccc(/C=C/C(=O)Nc2sc3c(c2C(=O)OC)CCC3)cc1OC", "inhibition": "-2.7%"}
{"smiles": "Cc1onc(-c2ccccc2)c1C(=O)Nc1nnc(COc2ccc(Cl)cc2)s1", "inhibition": "active: 38.9%"}
{"smiles": "COc1ccc(NC(=O)Cn2c(=O)oc3ccccc32)cc1", "inhibition": "-1.12%"}
{"smiles": "CCc1nnc(NC(=O)CCC(=O)Nc2ccc(C)cc2)s1", "inhibition": "active: 43.2%"}
{"smiles": "O=C(CSc1nc2ccsc2c(=O)n1Cc1ccc(F)cc1)NCc1ccc(Cl)cc1", "inhibition": "1.6%"}
{"smiles": "CN1c2ccc(Cl)cc2-c2nc(SCC(=O)NCc3ccc(F)cc3)ncc2S1(=O)=O", "inhibition": "10.8%"}
{"smiles": "CC1=C(C(=O)Nc2ccc(C)cc2C)C(c2ccccc2)n2nc(SCC(=O)c3ccc(C)cc3)nc2N1", "note": "(stereo unspecified)", "inhibition": "-2.98%"}
{"smiles": "CCCCNC(=O)CCC1N=C2c3ccccc3N=C(SCC(=O)NCCc3ccc(OC)c(OC)c3)N2C1=O", "note": "(stereo unspecified)", "inhibition": "15.9%"}
{"smiles": "Cc1ccc2nc(-c3ccc(NC(=O)Cc4ccccc4)cc3)sc2c1", "inhibition": "9.43%"}
{"smiles": "CCN(CC)CCNC(=O)CCn1c(=O)c2cccn2c2cccnc21", "inhibition": "-0.786%"}
{"smiles": "Cc1cc(N2CC(=O)N(CCc3ccccc3)C(=O)C2)n2ncnc2n1", "inhibition": "active: 32%"}
{"smiles": "CCN(CC)CCn1c(NCc2ccc3c(c2)OCO3)nc2ccccc21", "inhibition": "active: 32.7%"}
{"smiles": "CC(=O)c1ccc(NC(=O)Cn2nc(C(F)(F)F)c3c2CCC3)cc1", "inhibition": "-5.63%"}
{"smiles": "O=C(Cn1ncc2c3ccccc3n(Cc3ccccc3)c2c1=O)NCc1cccs1", "inhibition": "10.6%"}
{"smiles": "CCOC(=O)C1=C(CN2CCN(c3ccc(Cl)cc3)CC2)NC(=O)NC1c1ccc(OC)cc1", "note": "(stereo unspecified)", "inhibition": "-1.26%"}
{"smiles": "COc1cccc2sc(NC(=O)c3ccc4c(c3)OCCO4)nc12", "inhibition": "10.9%"}
{"smiles": "CCc1nc2ccc(C(=O)N3CCN(c4ccccc4F)CC3)cc2nc1CC", "inhibition": "8.81%"}
{"smiles": "Cc1ccc(Cl)cc1N1CCN(C(=O)Cn2cnc3onc(-c4ccc(F)cc4)c3c2=O)CC1", "inhibition": "2.11%"}
{"smiles": "O=C(CCn1c(=O)c2sccc2n(Cc2ccc(F)cc2)c1=O)NCc1ccc2c(c1)OCO2", "inhibition": "-16.1%"}
{"smiles": "COc1cccc(C2CC(=O)Nc3c2c(=O)n(C)c2nc4ccccc4n32)c1OC", "note": "(stereo unspecified)", "inhibition": "10.7%"}
{"smiles": "Cc1ccc(-n2nc3cc(C)c(NC(=O)c4ccc(-c5ccccc5)o4)cc3n2)cc1", "inhibition": "-1.36%"}
{"smiles": "Cc1ccc(NC(=O)CC2Oc3ccc(C)cc3NC2=O)c(C)c1", "note": "(stereo unspecified)", "inhibition": "7.94%"}
{"smiles": "CCOc1ccc(NC(=O)Cn2c(=O)n(CCc3ccccc3)c(=O)c3c4c(sc32)CCCC4)cc1", "inhibition": "1.48%"}
{"smiles": "COc1cccc(Nc2nnc(-c3cc4ccc(O)cc4oc3=O)s2)c1", "inhibition": "-3.68%"}
{"smiles": "CC(=O)Nc1ccc(NC(=O)CSc2nnc(NC(=O)Cc3ccc(F)cc3)s2)cc1", "inhibition": "active: 34%"}
{"smiles": "Cc1ccc(Cl)cc1NC(=O)Cn1c(=O)cc(C)c2c(C)nn(C)c21", "inhibition": "5.08%"}
{"smiles": "Cc1ccc(CNC(=O)CCNS(=O)(=O)c2ccc3c(c2)oc(=O)n3C)cc1", "inhibition": "-24.8%"}
{"smiles": "O=C(COc1ccc(Br)cc1Br)Nc1ccc(S(=O)(=O)Nc2ncccn2)cc1", "inhibition": "3.28%"}
{"smiles": "Cc1oc(-c2cccc(Cl)c2)nc1CN1CCC(C(=O)NC(C)C)CC1", "inhibition": "0.237%"}
